# The other results are listed elsewhere or left out. Values were computed here from the reads of four pooled replicates and scatter widely.
# Biological target: T1, Pho4 (S. cerevisiae) (UniProt P07270)
# T1 sequence: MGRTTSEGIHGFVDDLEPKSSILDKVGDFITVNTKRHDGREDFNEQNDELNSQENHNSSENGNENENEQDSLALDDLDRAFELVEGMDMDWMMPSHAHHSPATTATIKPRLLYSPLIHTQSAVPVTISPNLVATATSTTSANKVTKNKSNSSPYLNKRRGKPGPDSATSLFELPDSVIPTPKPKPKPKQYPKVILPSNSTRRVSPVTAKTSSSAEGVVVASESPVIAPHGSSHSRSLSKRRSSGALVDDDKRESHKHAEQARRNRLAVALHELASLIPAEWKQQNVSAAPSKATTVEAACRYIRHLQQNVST
# Test: relative binding free energy (BET-seq); higher = weaker binding
# Details: reference: library average
row,Sequence,relative binding free energy [kcal/mol]
1,GCATGCACGTGAAGGT,0.18
2,GCGTGCACGTGTTCGT,0.01
3,CTTGGCACGTGGCCGG,-0.22
4,TATTGCACGTGATTTC,0.24
5,TCTTTCACGTGGGCTG,0.18
6,GGGCACACGTGAGGGC,0.32
7,TTGATCACGTGTGGGT,0.18
8,AAGGGCACGTGTGTAG,-0.04
9,GGAGTCACGTGGTGGG,0.06
10,TTTATCACGTGAAAGG,0.31
11,GGTAGCACGTGAGCTT,0.24
12,TTGCTCACGTGAGGCT,0.35
13,TGTCGCACGTGTAGTT,-0.02
14,CACTGCACGTGGGTGT,-0.26
15,TACAACACGTGTTTGT,-0.06
16,GGCGGCACGTGAATTG,0.13
17,GAGAACACGTGGATTG,0.2
18,TATTGCACGTGGTGAA,-0.02
19,GGTTTCACGTGGGCTG,0.24
20,GATTACACGTGTGATG,0.16
21,TAGGTCACGTGGGCGT,-0.15
22,ATGGACACGTGGTTAG,-0.21
23,AGAGGCACGTGATGCG,-0.1
24,TGCAGCACGTGCTGGT,-0.12
25,TAGGTCACGTGCAAGT,-0.01
26,GGCTGCACGTGGTTAT,-0.01

row,Sequence,relative binding free energy [kcal/mol]
1,TGCGGCACGTGGCGTA,-0.31
2,GGATTCACGTGTTTCT,0.35
3,TGTGGCACGTGGCGCA,-0.2
4,CCGTTCACGTGTTGGG,0.24
5,AAGGTCACGTGGATAA,0.14
6,GGGGTCACGTGGAGAC,0.13
7,ATGTTCACGTGGAGGC,0.2
8,AGGATCACGTGGGGCA,-0.16
9,GTCCACACGTGTGGTG,0.18
10,GGTCTCACGTGTAATT,0.33
11,TAAAGCACGTGGGGAA,-0.24
12,ATCATCACGTGAGTGA,0.41
13,AGAAGCACGTGGATGT,-0.04
14,ATGGGCACGTGAGTTT,0.08
15,ATGCTCACGTGAGTAG,0.38
16,TAAATCACGTGGGATA,0.13
17,TTTCCCACGTGGTTGG,-0.02
18,GGGTTCACGTGAGGCA,0.33
19,ATTGTCACGTGTGCGG,0
20,GTTTGCACGTGCACGG,-0.19
21,AGTCTCACGTGTAGTT,0.2
22,TCGGACACGTGGGAAG,0.09
23,TAGCACACGTGGAGGG,0.07
24,GATAGCACGTGGTTGA,-0.03
25,TTTATCACGTGACGTG,0.21
26,GTCGTCACGTGGGCGG,-0.05

row,Sequence,relative binding free energy [kcal/mol]
1,CATGGCACGTGGATGG,-0.07
2,TTTGACACGTGATGTT,0.22
3,CGCGTCACGTGTGTGA,-0.09
4,ATATTCACGTGGGGCG,0.11
5,TATTTCACGTGGACTT,0.3
6,TTATTCACGTGCGTAG,0.15
7,TATTGCACGTGGTGAC,-0.03
8,CGGGCCACGTGGAAGT,0.06
9,ACTTACACGTGTTTTT,0.11
10,CTAATCACGTGGTGAT,0.14
11,AGATTCACGTGAGGTC,0.55
12,AGTATCACGTGAAAGA,0.43
13,AGGGCCACGTGGTGGC,-0.22
14,GTGGACACGTGAATTA,0.43
15,GCGTTCACGTGCGGAT,0.38
16,TCTAGCACGTGGGTCG,-0.23
17,CGGCTCACGTGCGTGG,0.09
18,CGTTGCACGTGTTGTG,0.03
19,CGGTCCACGTGGTGGC,-0.05
20,TAGTTCACGTGTCTGC,0.37
21,TCAGGCACGTGTTCAG,0.01
22,CTTAGCACGTGTAAGT,-0.05
23,CGTGGCACGTGTTTAG,-0.07
24,ATTAACACGTGGCGTG,0.01
25,ATTTTCACGTGTGTTG,0.27
26,GGCTGCACGTGCATGT,0.08

row,Sequence,relative binding free energy [kcal/mol]
1,ATTGTCACGTGGGCCG,0
2,AATTGCACGTGGATGT,-0.1
3,TTTGGCACGTGATGAA,-0.06
4,ACATTCACGTGGTATG,0.28
5,ACTGGCACGTGTGTGA,-0.13
6,TATTGCACGTGGGGGA,-0.16
7,ACGTGCACGTGGTCGG,0.04
8,TCTAACACGTGAGTTG,0.25
9,CTTAGCACGTGGGTGC,-0.14
10,CGGTACACGTGGTTGT,-0.01
11,CGATGCACGTGCAGGT,0.07
12,GTTCACACGTGTGCGG,0.13
13,GTGGGCACGTGTTCCG,-0.18
14,GCGAGCACGTGGGTTG,-0.25
15,GGGAACACGTGGCATG,0.1
16,GGAGGCACGTGTTAGG,-0.12
17,GATGACACGTGTTTAT,0.15
18,CGTGTCACGTGTAAGG,0.22
19,GTCCTCACGTGTGTGG,0.2
20,AGTGGCACGTGGCAAG,-0.27
21,GTTGTCACGTGCATTT,0.04
22,ATGAGCACGTGAGTAT,0.17
23,GAGTTCACGTGGTGTC,0.18
24,TGACGCACGTGCGGTT,-0.06
25,GTGGACACGTGTTTGC,0.15
26,GATGTCACGTGGATGA,0.13

row,Sequence,relative binding free energy [kcal/mol]
1,AGTGCCACGTGAAGTT,0.17
2,ATTTTCACGTGTAACG,0.27
3,GTCTTCACGTGGTGTT,0.25
4,CGTGTCACGTGTGAGC,0.12
5,CTGGACACGTGGATAT,0.17
6,GATGACACGTGTAGGA,0.17
7,CGTATCACGTGTAGTT,0.23
8,AGGAGCACGTGTAGGG,-0.24
9,GGGGACACGTGTTAGT,0.08
10,ATTGCCACGTGGCGTG,-0.19
11,TTGAGCACGTGACGGG,-0.08
12,GGTGGCACGTGGGCAT,-0.23
13,TTGAGCACGTGTGGTG,0.01
14,ATTGTCACGTGGCATT,0
15,AGATGCACGTGTAGGA,-0.04
16,GGTTGCACGTGTGAGA,0.2
17,TTGAACACGTGTGGGG,0.13
18,TATATCACGTGGTGAC,0.15
19,GTGATCACGTGTGATA,0.2
20,TGGGTCACGTGGCATT,0.02
21,TGTGGCACGTGTGAAC,0.02
22,TTGGGCACGTGGATTC,-0.01
23,TTGAGCACGTGAGTAT,0.17
24,TAGTACACGTGGCGGG,0.01
25,TGTAACACGTGACTGG,0.19
26,ATGATCACGTGCGTGT,0.05

row,Sequence,relative binding free energy [kcal/mol]
1,CGTGCCACGTGATGGG,-0.06
2,GCCTTCACGTGTGGGG,0.26
3,TAGTGCACGTGATTGT,0.13
4,TAGTGCACGTGAGTTA,0.2
5,TCGTTCACGTGGCTGG,0.21
6,GGGTACACGTGGCAAG,0.07
7,TGATGCACGTGGTTTT,0.07
8,ATTGACACGTGAAGGT,0.13
9,TGTCGCACGTGGAGGT,-0.08
10,CAGGGCACGTGGGTGT,-0.25
11,GGGGGCACGTGCCGGC,-0.31
12,CGGTACACGTGTTATG,-0.07
13,TTATGCACGTGCATTA,-0.1
14,TCATGCACGTGAGGCG,0.19
15,ATATGCACGTGTTTCT,-0.03
16,GGTAGCACGTGGAGCG,0.06
17,TCTGTCACGTGAGAAT,0.3
18,CTTTGCACGTGGTAGA,-0.14
19,GTTGGCACGTGATCAG,0.04
20,AGGCCCACGTGTTGTA,0.1
21,GCCGTCACGTGGTTGT,0.08
22,AAGATCACGTGCGGTT,0.12
23,TATAGCACGTGCGAGG,-0.09
24,GGTTGCACGTGGATGT,0.04
25,CGTTTCACGTGTAATT,0.22
26,TTTTTCACGTGTCTAG,0.26

row,Sequence,relative binding free energy [kcal/mol]
1,CGGTTCACGTGGCGTG,0.22
2,GATAACACGTGTGGGG,-0.11
3,CGGGACACGTGGGGAT,-0.17
4,TCTGTCACGTGTGTGC,0.06
5,TTTGTCACGTGCGTTT,0.19
6,GATCTCACGTGGTTAG,0.24
7,TTGCTCACGTGTTCGT,0.16
8,GTGTGCACGTGCTCGT,-0.09
9,TTCGTCACGTGTTTGA,0.12
10,TCAAGCACGTGGTATG,-0.09
11,ATGTGCACGTGAGATA,0.19
12,TCGGTCACGTGGATGT,-0.01
13,TTGATCACGTGATGCG,0.41
14,AGGTGCACGTGATTGC,0.12
15,AGGGCCACGTGGATTA,0.02
16,GGTTACACGTGTGTGT,0.2
17,CTTTACACGTGCTTGT,0.04
18,GTACTCACGTGGTGGA,0.22
19,GTATTCACGTGTGATA,0.2
20,GGGTACACGTGGCGGA,-0.05
21,GTTTACACGTGTAGGT,0.21
22,CTTGTCACGTGTGAGG,0.23
23,TATGTCACGTGTCTAG,0.08
24,GCGGACACGTGGGTCG,-0.12
25,GTTGGCACGTGGGGAG,-0.09
26,GTAAACACGTGTATGT,0.07

row,Sequence,relative binding free energy [kcal/mol]
1,TATCGCACGTGAATTG,0.24
2,AGGGTCACGTGAGAGG,0.3
3,TGAATCACGTGTCATT,0.14
4,ATGGACACGTGGGCGT,-0.09
5,GCTCACACGTGGGGGT,0.03
6,CTAGGCACGTGGTAGT,-0.14
7,GAGTTCACGTGGTTAT,0.4
8,TTTAGCACGTGGAGGT,-0.09
9,AAAGGCACGTGGGTTG,-0.27
10,AGGGGCACGTGAGGAA,0.17
11,TTATGCACGTGTCTGT,-0.06
12,GGGTTCACGTGGTAAC,0.35
13,TGCGGCACGTGAAGGT,0.09
14,TGGCTCACGTGATATT,0.31
15,CGGGTCACGTGTAATT,0.17
16,TATGACACGTGATTTA,0.14
17,AAGGGCACGTGATATG,-0.08
18,GTTCTCACGTGAGTAG,0.39
19,TGAAACACGTGGGGGA,-0.04
20,AGTTTCACGTGATGGT,0.34
21,TTGGGCACGTGTACAT,-0.08
22,TGAAGCACGTGGGTTG,-0.2
23,ATGTGCACGTGTAGGA,0
24,CATTACACGTGATGTG,0.09
25,TTGGCCACGTGTGTAG,0.01
26,AGTGCCACGTGGGTTA,-0.09

row,Sequence,relative binding free energy [kcal/mol]
1,TTTGTCACGTGATCGA,0.05
2,GTCAACACGTGTAGTT,0.1
3,GAAATCACGTGCGGTG,0.25
4,CGGGGCACGTGAAGTT,0.15
5,TTTTGCACGTGACGAG,0.05
6,ATGGCCACGTGTTGTT,-0.12
7,CCTGTCACGTGGAGGT,-0.02
8,GGGTGCACGTGGAGCG,-0.01
9,TATTTCACGTGGCATA,0.17
10,TAAGGCACGTGGGGTG,-0.2
11,GAATGCACGTGTGTGA,0.12
12,GCCTACACGTGTGTGG,0.17
13,TGGCACACGTGTTTAG,0.14
14,ATGAACACGTGTGATT,0.1
15,AGTTACACGTGGTTAA,0.08
16,AAAATCACGTGATGTT,0.3
17,ACGTGCACGTGTAAGG,0.02
18,ATCAGCACGTGTGGCG,0
19,TCGGGCACGTGTATTT,0
20,GACATCACGTGTTGGG,0.07
21,GTCAGCACGTGGGGGA,-0.26
22,ATGGACACGTGGCAGG,-0.15

# Source: the BET-seq Pho4 binding data (Le et al. 2018)
